Assay results taken from PubChem BioAssay AID488969 (Vanderbilt High Throughput Screening Facility, 2010).
The full ranking holds about 110,000 compounds; the median of “z-score” is about -0.1, and the highest 2% start at about 2. The list shows a part of the results. Calls of active or inactive are those of the source.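 The calls were made as follows: active = z-score in the third read window above 3 or below -3; inactive = the rest.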

What follows are compounds tested against Metabotropic glutamate receptor 8 (Rattus norvegicus) (UniProt P70579) (assay: rat mGluR8 modulators via GIRK flux, primary screen, cell-based, thallium flux, HTS (AID 488969)). Settings: HEK293 rat mGluR8, GIRK (G protein-gated inwardly rectifying potassium channel) thallium flux, FluoZin2; at 10 µM; stronger effect = higher value; submaximal glutamate (EC20) added with thallium.
UniProt P70579, sequence (P70579 whole entry, looked up): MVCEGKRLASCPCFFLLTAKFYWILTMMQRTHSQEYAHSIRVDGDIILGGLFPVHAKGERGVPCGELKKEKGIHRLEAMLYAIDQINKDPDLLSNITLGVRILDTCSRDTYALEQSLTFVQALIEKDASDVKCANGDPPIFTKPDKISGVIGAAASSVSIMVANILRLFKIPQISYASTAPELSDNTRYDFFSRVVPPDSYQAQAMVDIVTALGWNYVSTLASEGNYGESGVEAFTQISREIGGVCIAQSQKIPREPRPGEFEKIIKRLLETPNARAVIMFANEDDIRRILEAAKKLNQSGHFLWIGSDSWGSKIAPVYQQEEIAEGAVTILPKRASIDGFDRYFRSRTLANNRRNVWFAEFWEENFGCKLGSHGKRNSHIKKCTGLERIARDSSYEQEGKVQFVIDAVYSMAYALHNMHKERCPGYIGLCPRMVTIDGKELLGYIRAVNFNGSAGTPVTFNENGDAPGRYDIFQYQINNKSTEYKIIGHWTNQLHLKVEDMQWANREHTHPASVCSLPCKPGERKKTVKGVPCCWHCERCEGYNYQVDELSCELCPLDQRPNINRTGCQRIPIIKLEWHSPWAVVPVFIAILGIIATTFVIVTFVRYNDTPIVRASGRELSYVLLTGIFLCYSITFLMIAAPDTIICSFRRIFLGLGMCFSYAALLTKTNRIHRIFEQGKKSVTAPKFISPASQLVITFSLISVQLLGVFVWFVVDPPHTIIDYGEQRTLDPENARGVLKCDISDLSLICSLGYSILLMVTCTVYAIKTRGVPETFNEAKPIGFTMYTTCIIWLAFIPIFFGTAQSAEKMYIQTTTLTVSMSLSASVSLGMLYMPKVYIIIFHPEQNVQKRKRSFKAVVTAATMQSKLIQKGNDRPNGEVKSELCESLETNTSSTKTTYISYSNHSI

| SMILES | z-score |
| --- | --- |
| O=C(NNC(=O)c1cccnc1SCc1cccc([N+](=O)[O-])c1)c1ccccn1 | active: 3.29 |
| Cc1cc(/C=N/n2cnnc2)c(C)n1-c1cccc(C(=O)O)c1 | -0.692 |
| Nc1cc[n+](CC(=O)c2ccc3c(c2)OCCO3)cc1 | -0.0218 |
| COc1ccc(C(=O)NCCN2CCOCC2)cc1OC | -0.228 |
| O=C(C=C1CCN(c2ncc(C(F)(F)F)cc2Cl)CC1)NNC(=O)Nc1ccccc1 | -0.0967 |
| CCc1c(C)nc2ncnn2c1N1CCCC(C(=O)NCc2ccco2)C1 (stereo not drawn) | 0.301 |
| O=C(COC(=O)c1ccccc1NC(=O)c1ccco1)NCC1CCCCC1 | 0.0516 |
| O=C(Nc1cnc2ccccn2c1=O)c1ccc(F)cc1 | -0.0283 |
| O=C(CSc1nnc(-c2ccccc2)o1)NC1CCS(=O)(=O)C1 (stereo not drawn) | -0.148 |
| COc1ccc(C(C(=O)OCCN(C)C)c2ccccc2)cc1 (stereo not drawn) | 0.325 |
| C=CCN1C(=O)C(C)S/C1=N\S(=O)(=O)c1ccc(Cl)cc1 (stereo not drawn) | -0.211 |
| CCN(CC)C(=O)C(=O)c1cccn1-c1cccc(-n2cccc2C(=O)C(=O)N(CC)CC)c1C#N | 0.732 |
| O=C(NCCCN1CCOCC1)c1c(F)cccc1F | -0.474 |
| Brc1ccc(-c2nnc(SCCC3OCCCO3)o2)cc1 | 0.277 |
| Cc1ccc(-n2nnnc2-c2nc3ccccc3s2)cc1 | active: 6.16 |
| Cc1ccc(C)c(C(=O)C(C)OC(=O)c2cccn2C)c1 (stereo not drawn) | 0.876 |
| COC(=O)/C(=C\Nc1ccccc1)NC(=O)c1ccc(Cl)cc1Cl | -1.12 |
| COc1cccc(C2CC(C(F)(F)F)n3ncc(C(=O)Nc4c(C)n(C)n(-c5ccccc5)c4=O)c3N2)c1 (stereo not drawn) | -0.249 |
| O=C(COc1ccccc1C(=O)c1cnn(-c2ccccc2)c1)Nc1ccc2ccccc2c1 | -0.194 |
| c1cncc(CNc2nc(N3CCOCC3)nc(N3CCOCC3)n2)c1 | -0.259 |
| c1coc(CNc2nc3nonc3nc2NCc2ccco2)c1 | 0.514 |
| CC(C)Oc1ccc(C(=O)Nc2ccc(C(F)(F)F)n(C)c2=O)cc1 | -0.0243 |

| SMILES | z-score |
| --- | --- |
| CS(=O)(=O)N1CCN(c2ccc(NC(=O)C(c3ccccc3)c3ccccc3)cc2)CC1 | -0.0173 |
| CCOC(=O)c1nnn(-c2nonc2N)c1COc1cc(C)c(Cl)c(C)c1 | -0.174 |
| O=C1CC2CS(=O)(=O)CC2N1c1ccc(Cl)cc1Cl (stereo not drawn) | -0.0651 |
| Cn1ncc(Br)c1C(=O)N/N=C/c1cccc(OC2CSC2)c1 | -0.309 |
| CC(=O)Nc1ccccc1C(=O)C(=O)O | -0.274 |
| Cn1c(=O)c2ncn(CC(=O)NCCC3=CCCCC3)c2n(C)c1=O | 0.0139 |
| CCC(=O)Nc1ccc(Cl)c(NC(=S)NC(=O)c2cc3ccccc3o2)c1 | 0.019 |
| CCc1ccc(N(C(C)=O)C2C=CS(=O)(=O)C2)cc1 (stereo not drawn) | -0.0323 |
| COc1ccc(N2C(=O)C3CCCN3C2c2cccc(OC)c2OC)cc1 (stereo not drawn) | -0.15 |
| C=CCC(NCc1ccccc1)c1ccco1 (stereo not drawn) | 2.42 |
| CCc1nc(SCC(=O)c2ccc(C)c(C)c2)n[nH]1 | -0.453 |
| Cn1nc(-c2ccc(C(=O)Nc3cccnc3)cc2)c2ccccc2c1=O | -0.154 |
| Cc1ccc(C)c(NC(=O)CN(C)S(=O)(=O)c2ccccc2)c1 | -0.409 |
| O=C(c1cccc(S(=O)(=O)N2CCCC2)c1)N1CCN(c2ncccn2)CC1 | 0.0725 |
| CCOP(=O)(OCC)C(NC(=O)Nc1ccc(Cl)cc1)C(=O)N(CC)CC (stereo not drawn) | -0.672 |
| CN(C)c1ccc(C(C(=O)NC(C)(C)C)N(C(=O)c2csnn2)C2CC2)cc1 (stereo not drawn) | 0.816 |
| O=C(CN1CCC(O)(c2ccc3c(c2)OCO3)CC1)N1CCOCC1 | 0.605 |
| O=C(Nc1cccc2ncccc12)c1ccc(-c2ccc(Cl)cc2Cl)o1 | -0.128 |
| CCOC(=O)C(C)(C)N(Cc1cccc(C)c1)S(=O)(=O)c1cccc([N+](=O)[O-])c1 | -0.287 |
| COc1ccc(C2CC(c3ccccc3)=NN2C(=O)COC(=O)c2cccc(S(=O)(=O)N(C)C)c2)cc1 (stereo not drawn) | -0.697 |
| NC(=O)C1(N2CCCCC2)CCN(C(=O)c2ccc(-n3cnnn3)cc2)CC1 | 0.237 |
| COc1ccc(Cn2c(-c3ccc(C)cc3)c[n+]3ccccc23)cc1 | 0.00664 |

| SMILES | z-score |
| --- | --- |
| CCn1cc(C(=O)NCc2ccc3c(c2)OCO3)c(=O)c2cc(S(=O)(=O)N3CCOCC3)ccc21 | -0.791 |
| Cc1ccc(O)c(NC(=O)COc2cc(C)ccc2C)c1 | 0.383 |
| O=C(CSc1ccc(Cl)cc1)Nc1cc(-c2nc3ncccc3o2)ccc1Cl | -0.0513 |
| Cc1ccc(-c2nc3ccccc3n3nnnc23)cc1 | -0.162 |
| CC(C)(C)c1ccc(OC(=O)c2cccnc2)cc1 | -0.0737 |
| O=C(COC(=O)CNC(=O)c1ccc(Cl)cc1)Nc1ccc(Cl)cc1C(F)(F)F | -1.14 |
| COc1ccc(/C=C/c2ccncc2)c2ccccc12 | -0.236 |
| O=C(Cc1cccs1)Nc1ccc(NC(=O)c2ccco2)cc1 | -0.0243 |
| CN1CCN(S(=O)(=O)c2ccc(SCCOc3ccccc3)nc2)CC1 | 0.745 |
| CCc1nnc(NC(=O)CCC(=O)Nc2ccccc2)s1 | -0.0312 |
| Cc1ccc(C(=O)N/C(=C\c2cccs2)C(=O)NCC2CCCO2)cc1C (stereo not drawn) | -0.226 |
| O=c1[nH]c2cc3c(cc2cc1CN(Cc1cccnc1)Cc1nnnn1Cc1ccco1)OCCO3 | -0.00904 |
| CCOC(=O)N1CCN(C(=O)CSCc2ccccc2C)CC1 | -0.152 |
| COc1cc(OC)cc(-c2cc3nc(C4CCN(C(=O)OC(C)(C)C)CC4)cc(=O)n3[nH]2)c1 | 1.15 |
| Cc1cc(N2CCN(S(=O)(=O)c3ccccc3)CC2)c2ccccc2n1 | 0.244 |
| CCCCSc1nc(CCC)cc(=O)[nH]1 | -0.641 |
| O=C(CN1C(=O)NC(Cc2ccccc2)C1=O)NC(=O)NC1CCCCC1 (stereo not drawn) | -0.215 |
| CS(=O)(=O)Nc1ccc(C(=O)Nc2ccc3c(c2)OCCO3)cc1 | -0.17 |
| COC(=O)/C=C1/S/C(=N/N=C/c2ccc(N(C)C)cc2)NC1=O | 0.494 |
| NC(=O)c1c(NC(=O)c2ccccc2)sc2c1CCc1ccccc1-2 | -0.173 |
| COc1ccccc1C(=O)Nc1ccc2c(c1)nc(CCNC(C)=O)n2C | -0.141 |
| O=C(CSc1ccc2nnc(-c3ccc(F)cc3)n2n1)N1CCOCC1 | 0.672 |

| SMILES | z-score |
| --- | --- |
| c1ccc(-n2nnnc2Sc2n[nH]c(-c3ccncc3)n2)cc1 | 0.714 |
| O=C1C2C3C=CC(C3)C2C(=O)N1CCN1CCN(S(=O)(=O)c2ccc3ccccc3c2)CC1 (stereo not drawn) | 0.0243 |
| CC1(C)CC(=O)C2=C(C1)OC(N)=C(C#N)C2c1ccc(OC(=O)N2CCOCC2)cc1 (stereo not drawn) | -0.0642 |
| CN(C(=O)COC(=O)CNC(=O)C12CC3CC(CC(C3)C1)C2)C1CCS(=O)(=O)C1 (stereo not drawn) | -0.182 |
| CCOC(=O)c1c(C)nc2c(c1-c1ccc(OC)cc1)C(=O)CC(C)(C)C2 | -0.379 |
| Cc1cc(Cl)c(S(=O)(=O)Nc2ccc3c(c2)OCO3)cc1OCC(=O)NC1CCCCC1 | -0.417 |
| Cc1cc(S(=O)(=O)n2cnc3ccccc32)c(C)cc1Cl | -0.163 |
| COc1cc(NC(=O)c2cccs2)c(C(=O)OCC(=O)c2cc(C)n(-c3ccc(F)cc3)c2C)cc1OC | -0.037 |
| Cc1ccnc(NS(=O)(=O)c2ccc(Oc3ccccc3)cc2)c1 | -0.165 |
| CC1Cc2ccccc2N1C(=O)CN1C(=O)NC(C)(c2ccc3c(c2)OCCO3)C1=O (stereo not drawn) | -0.178 |
| CC1CCc2c(sc(NC(=O)c3ccc(Cn4cc(Br)cn4)o3)c2C(N)=O)C1 (stereo not drawn) | -0.188 |
| O=C(CSc1nnc(Cc2ccc3c(c2)OCO3)n1C1CCCCC1)NC1CCCC1 | -0.316 |
| CN(Cc1ccccc1)C(=O)CNC(=O)Cn1cnc2ccccc2c1=O | -0.137 |
| O=C(Nc1ccc(NC(=O)C2CC2)nc1)c1ccccn1 | -1.64 |
| CCOC(=O)N1CCC(N2C(=O)c3ccc(C(=O)NCc4ccco4)cc3C2=O)CC1 | -0.36 |
| CCc1c(C)nc2ncnn2c1NCCc1ccccc1 | -0.282 |
| CCCSc1nc(C)c2cc(C)cc(C)c2n1 | -0.0794 |
| Cc1nc2c(oc3ccccc32)c(=O)o1 | 0.481 |
| CS(=O)(=O)N(CC(=O)NCCSc1ccccc1)c1ccc2c(c1)OCO2 | 1.46 |
| COc1ccccc1-c1nnc(NC(=O)C2=COCCO2)o1 | 0.276 |
| COC(=O)c1cc2ccccc2c(=O)s1 | -0.511 |
| CC(C)(C)N=C1SCC(C)(/C=N/O)S1 (stereo not drawn) | 0.201 |

| SMILES | z-score |
| --- | --- |
| O=C(CSc1nnc(-c2c[nH]c3ccccc23)n1-c1ccc(F)cc1)NCc1ccco1 | active: -3.61 |
| O=C1CCCN1CCC1CCN(C(=O)Nc2ccccc2)CC1 | -0.102 |
| CCOC(=O)c1ccc(-n2ncc(C(=O)OCC)c2N)cc1 | -0.121 |
| Cc1ccc(NC(=S)NCc2cccn2C)cc1 | 0.349 |
| S=C(NCc1ccc(Cl)cc1Cl)Nc1ccccc1 | active: 3.34 |
| CNC(=O)c1nn(-c2ccc(Cl)cc2)ccc1=O | -0.0128 |
| COc1ccc(NC(=O)CN2CCN(CC(=O)Nc3ccccc3Cl)CC2)cc1Cl | -1.41 |
| CCCN1C(=O)SC(CC(=O)Nc2cccc3ccccc23)C1=O (stereo not drawn) | 0.304 |
| CCN(CC)C(=O)Cn1nc(C)c2ccccc2c1=O | -0.346 |
| CCNC(=O)CSc1nnc(-c2ccccc2Br)n1-c1cccc(C(F)(F)F)c1 | -0.376 |
| CCOC(=O)c1cnc2ccc(C)cc2c1Sc1ccccc1C(=O)OC | -0.78 |
| CCCCNC(=S)NNC(=O)C12CC3CC(CC(C3)C1)C2 | -0.391 |
| CC1=C(C(=O)OC(C)C)C(c2cccnc2)C2=C(CC(C)(C)CC2=O)N1 (stereo not drawn) | -0.185 |
| O=C(NCC1CCCO1)C1CCC(CNS(=O)(=O)c2ccccc2)CC1 (stereo not drawn) | -0.111 |
| CN(C)C(=O)/C(=C\c1cccc(Oc2ccccc2)c1)NC(=O)c1ccccc1 | 0.438 |
| CCOC(=O)C1C(=O)NC(c2ccccc2)=NC1c1ccccc1 (stereo not drawn) | -0.0399 |
| COc1ccc(-n2nnnc2SCC(=O)NCCc2ccc(OC)c(OC)c2)cc1 | 0.0743 |
| COc1cc(/C=C2\S/C(=N/S(=O)(=O)c3ccc(C)cc3)NC2=O)c([N+](=O)[O-])cc1OC | active: -4 |
| CCOC(=O)c1ccc(S(=O)(=O)N2CCN(C)CC2)cc1 | -0.0673 |
| Cc1ccc(OC(C)C)c(CN(CCO)CCO)c1 | -0.396 |
